# Results published in the supplement of paper PMC12645437, “Orthogonal IMiD-Degron Pairs Induce Selective Protein Degradation in Cells” (ACS Chemical Biology, 2025).
# Some of the results follow.
# Target: no compound (DMSO)
# Test: log2 fold change of degron read counts, EGFP-low vs EGFP+ sorted cells; higher = lower degron-EGFP level without compound (poor expression or instability)
# Details: compound: DMSO control; 18 h
# 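Also: jurkat cells carrying a lentiviral library of mutant zinc finger degrons fused to EGFP plus mCherry, mCherry+ cells FACS sorted, degron abundance counted by next-generation sequencing.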
row,Sequence,log2 fold change of degron read counts
1,LDCNQCGFGCTQKGNLLRHIKL,0.503
2,FRCPICGHVFTQKGNLLRHIKL,-0.205
3,FFCNQCGHPFTQKGNLLRHIKL,0.977
4,LRCNQCGFICTQKGNLLRHIKL,0.967
5,FRCNQCGRYFTQKGNLLRHIKL,0.186
6,FMCNVCGAGFTQKGNLLRHIKL,-0.301
7,FECEVCGATFTQKGNLLRHIKL,-1.85
8,LECNQCGFDCTQKGNLLRHIKL,-0.809
9,FHCNQCGHPFTQKGNLLRHIKL,0.178
10,FFCSVCGHRFTQKGNLLRHIKL,-0.00464
11,FICPICGATFTQKGNLLRHIKL,-0.412
12,FWCPICGHNFTQKGNLLRHIKL,0.643
13,FKCEICGRLFTQKGNLLRHIKL,-1.2
14,FFCEICGAAFTQKGNLLRHIKL,-1.69
15,FECPICGHPFTQKGNLLRHIKL,-0.455
16,FICSVCGHFFTQKGNLLRHIKL,0.802
17,FTCDVCGAPFTQKGNLLRHIKL,-0.574
18,FECEICGHSFTQKGNLLRHIKL,-1.97
19,FLCNQCGHNFTQKGNLLRHIKL,0.269
20,FTCNQCGHNFTQKGNLLRHIKL,-0.918
21,LTCNQCGFNCTQKGNLLRHIKL,0.353
22,LGCNQCGFHCTQKGNLLRHIKL,1.54
23,FTCNICGAIFTQKGNLLRHIKL,0.158
24,FECNQCGAGFTQKGNLLRHIKL,-1.63
25,LCCNQCGFNCTQKGNLLRHIKL,0.576

row,Sequence,log2 fold change of degron read counts
1,FQCEICGRFFTQKGNLLRHIKL,-0.941
2,FECNQCGAQFTQKGNLLRHIKL,-2.49
3,FSCPICGHQFTQKGNLLRHIKL,0.0344
4,FLCDVCGALFTQKGNLLRHIKL,-0.867
5,FFCDQCGANFTQKGNLLRHIKL,-2.7
6,FVCPICGACFTQKGNLLRHIKL,0.0248
7,FSCPQCGAIFTQKGNLLRHIKL,-0.545
8,FWCDVCGAKFTQKGNLLRHIKL,-0.519
9,FSCNQCGAYFTQKGNLLRHIKL,0.729
10,FDCNICGAEFTQKGNLLRHIKL,-1.45
11,FMCPQCGAVFTQKGNLLRHIKL,-0.29
12,FNCEICGRRFTQKGNLLRHIKL,-0.899
13,FCCEICGALFTQKGNLLRHIKL,-1.3
14,LKCNQCGFPCTQKGNLLRHIKL,0.785
15,FECEICGAIFTQKGNLLRHIKL,-1.21
16,FVCEVCGAAFTQKGNLLRHIKL,-1.59
17,FSCNICGAWFTQKGNLLRHIKL,-0.0526
18,FFCNQCGARFTQKGNLLRHIKL,0.61
19,FRCSVCGHDFTQKGNLLRHIKL,-1.12
20,FWCNQCGHHFTQKGNLLRHIKL,1.66
21,FYCNQCGADFTQKGNLLRHIKL,-0.467
22,FNCNQCGAWFTQKGNLLRHIKL,0.255
23,FCCDQCGASFTQKGNLLRHIKL,-3.38
24,LMCPICGFFCTQKGNLLRHIKL,2.11
25,LYCPICGFSCTQKGNLLRHIKL,1.09
